The whole screen tested about 310,000 compounds, of which about 14,000 (4.5%) showed an effect of 50% or more. The effect is printed as a negative number. The list shows a part of the results.
Target: human ether-à-go-go-related gene (hERG) potassium channel (human, UniProt Q12809)
Experiment: primary screen, population patch clamp on CHO cells stably expressing hERG
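Note: peak tail current of the secondary pulse compared with the same well before compound.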

Chain of human ether-à-go-go-related gene (hERG) potassium channel (Q12809 whole entry, looked up): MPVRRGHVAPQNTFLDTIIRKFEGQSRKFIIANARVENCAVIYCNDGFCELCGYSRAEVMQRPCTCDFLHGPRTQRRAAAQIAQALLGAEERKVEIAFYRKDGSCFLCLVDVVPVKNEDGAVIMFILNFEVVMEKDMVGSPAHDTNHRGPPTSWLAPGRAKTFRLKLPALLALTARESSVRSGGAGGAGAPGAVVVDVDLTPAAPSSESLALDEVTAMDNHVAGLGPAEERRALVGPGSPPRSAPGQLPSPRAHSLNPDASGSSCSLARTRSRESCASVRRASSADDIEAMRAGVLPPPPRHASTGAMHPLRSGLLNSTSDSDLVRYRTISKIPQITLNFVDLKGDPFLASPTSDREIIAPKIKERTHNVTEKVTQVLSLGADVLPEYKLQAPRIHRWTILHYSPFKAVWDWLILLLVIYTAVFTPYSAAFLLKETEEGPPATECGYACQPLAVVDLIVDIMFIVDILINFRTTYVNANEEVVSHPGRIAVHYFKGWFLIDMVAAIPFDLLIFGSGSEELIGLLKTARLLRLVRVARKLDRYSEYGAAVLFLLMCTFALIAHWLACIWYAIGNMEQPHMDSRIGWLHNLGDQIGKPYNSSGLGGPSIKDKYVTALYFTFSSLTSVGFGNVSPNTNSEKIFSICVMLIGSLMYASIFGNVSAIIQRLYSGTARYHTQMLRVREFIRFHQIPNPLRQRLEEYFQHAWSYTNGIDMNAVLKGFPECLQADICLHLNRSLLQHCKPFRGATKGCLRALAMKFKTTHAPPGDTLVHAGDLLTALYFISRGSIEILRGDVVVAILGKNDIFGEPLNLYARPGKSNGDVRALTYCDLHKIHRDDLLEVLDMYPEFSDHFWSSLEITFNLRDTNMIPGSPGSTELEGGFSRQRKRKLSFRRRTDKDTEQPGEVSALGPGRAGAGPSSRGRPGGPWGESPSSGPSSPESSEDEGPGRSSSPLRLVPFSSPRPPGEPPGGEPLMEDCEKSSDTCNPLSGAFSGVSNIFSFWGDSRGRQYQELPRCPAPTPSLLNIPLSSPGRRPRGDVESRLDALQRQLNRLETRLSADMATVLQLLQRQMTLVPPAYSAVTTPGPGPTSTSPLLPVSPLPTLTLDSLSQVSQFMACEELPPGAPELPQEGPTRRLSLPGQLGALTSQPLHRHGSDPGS

Compound | hERG current change (%, negative = inhibition) at 10uM [%]
CS(=O)(=O)N1CCC(Oc2ccccc2C(=O)NC(C2CC2)C2CC2)CC1 | -37.1
COc1ccc(C(CNC(=O)c2cc3ccccc3o2)N2CCCC2)cc1 (stereo not drawn) | -38.6
COc1ccc(C(=O)C2CCCN(Cc3cccn3-c3ccccn3)C2)cc1F (stereo not drawn) | -78.5
N#Cc1c(NC(=O)c2ccco2)sc2c1CCC2 | -1.6
Fc1ccc(C2CCCN2Cc2nc(Cc3ccccc3)no2)cc1 (stereo not drawn) | -15.2
O=C(Oc1c(-c2ccccc2)oc2ccccc2c1=O)c1ccccc1 | -2.91
O=C(COC(=O)C1C2CC3OC(=O)C1C3C2)Nc1cccc(Cl)c1 (stereo not drawn) | -15.4
Cc1ccc(CN(C(=O)c2csnn2)C(C(=O)NC2CCCC2)c2ccco2)cc1 (stereo not drawn) | -28.3
Nc1nc2c(ncn2[C@H]2C[C@H](O)[C@@H](CO)O2)c(=O)[nH]1.O | 12.7
O=C(Nc1nnc(C2=COCCO2)o1)c1cccc(F)c1 | 16.7
O=C(Nc1ccccc1N1CCOCC1)C1CCCCN1S(=O)(=O)c1ccccc1 (stereo not drawn) | -20.8
Cc1ccc2cc(CNCCc3ccccc3C)c(=O)[nH]c2c1 | -69.7
Cc1ccc(-n2nc(C)c3c(C)c(CCC(=O)Nc4ccc(CN5CCCC5)cc4)c(C)nc32)cc1 | -60.2
O=C(O)c1ccc(CN2CCOCC2)o1 | 11.5
CN(/C=C/c1c([N+](=O)[O-])c(=O)n(C)c(=O)n1C)c1ccccc1 | -18.7
CN1CCc2c(sc(NC(=O)c3ccc4ccccc4c3)c2C(N)=O)C1.Cl | -5.05
Cc1ccc(S(=O)(=O)N(CC(=O)NCc2ccco2)c2ccccc2C)cc1 | -8.75
CC(C)c1ccc(C2CC(=O)N3CN(Cc4ccco4)CSC3=C2C#N)cc1 (stereo not drawn) | 14.5
COc1ccc(-n2cc(CN3CCCC3)c(-c3cccc(F)c3)n2)cc1 | -57
c1ccc(-c2noc(CN3CCOCC3)n2)cc1 | 29
CCCNC(=O)Nc1cc(S(=O)(=O)CC)ccc1O | 11.9
Nc1ccc(Oc2ccccc2F)nc1 | 11.9

Compound | hERG current change (%, negative = inhibition) at 10uM [%]
CCOc1ccc(N2C(=O)CC(C(C)c3ccccc3)C2=O)cc1 (stereo not drawn) | -11.6
COC(=O)COc1ccc(/C=N/NC(=O)c2ccc(N(Cc3ccccc3)S(C)(=O)=O)cc2)cc1 | 0.0151
CN(CC(=O)Nc1ccc(F)cc1)C(=O)CSc1ncccn1 | 14.3
COc1ccc(S(=O)(=O)N2CN3CCN(C3)C2)cc1OC | 7.42
CS(=O)(=O)c1nc(S(=O)(=O)c2ccc(Cl)cc2)c(NCCCn2ccnc2)s1 | -25.8
O=C(CN1C(=O)NC2(CCCc3ccccc32)C1=O)N1CCN(c2cccc(C(F)(F)F)c2)CC1 (stereo not drawn) | -9.03
Cc1nnc(SCC(=O)Nc2cccc(C(F)(F)F)c2)n1Cc1ccco1 | -31.4
CC(C)(CO)NCc1cc(Br)ccc1OCc1ccccc1.Cl | -35.5
CSc1ccccc1NC(=O)Cn1c(-c2cscn2)nc2ccccc21 | -23.8
O=C(Nc1cccc(S(=O)(=O)N2CCCCCC2)c1)c1ccc2ccccc2n1 | -2.91
Cc1ccccc1COc1ccc2oc(C)c(C(=O)O)c2c1 | 14.9
CC(=N\Nc1ccc(Cl)cc1)/C(=N/O)C(=O)Nc1ccccc1 | -0.969
CCC1=C([N+](=O)[O-])C(c2ccc3c(c2)OCO3)NC(=O)N1 (stereo not drawn) | 16
COc1ccc(-n2c(=O)[nH]cc(C(=O)Nc3ccccc3)c2=O)cc1 | 4.33
Cc1cc(C)n(CC(=O)N2CCCC(C(=O)c3cccc(OC(C)C)c3)C2)n1 (stereo not drawn) | -20.1
Cc1cccc(N(Cc2ccccc2F)S(C)(=O)=O)c1 | 3.07
COc1ccc(C)cc1NC(=O)CN(c1ccccc1F)S(C)(=O)=O | -5.63
O=S(=O)(c1ccc(F)c2ccccc12)N1CCCCC1 | 0.38
CCN1CCN(S(=O)(=O)c2ccc(Oc3ccccc3OC)cc2)CC1 | -15
CCSCCOC(=O)C1=C(C)NC(=O)NC1c1ccc2c(c1)OCO2 (stereo not drawn) | -13.4
Cc1ccc(CSCCNC(=O)CN(c2cccc([N+](=O)[O-])c2)S(C)(=O)=O)cc1 | -53.2
COc1cccc(NC(=O)CN(C)CC(=O)Nc2ccc(C)cc2Cl)c1 | -15.4

Compound | hERG current change (%, negative = inhibition) at 10uM [%]
Cc1nn(-c2ccccc2)c(C)c1/C=N/O | 3.41
COc1ccc(-n2c(-c3ccccc3[N+](=O)[O-])nc3ccccc3c2=O)cc1 | -68.7
CCc1ccc(N2CC(C(=O)OCC(=O)Nc3ccc(C#N)cc3)CC2=O)cc1 (stereo not drawn) | -57.9
Cc1ccc(S(=O)(=O)N(C)c2ccc(OCC(=O)N3CCCCC3)cc2)cc1 | -10.5
CCNCCC(CCC(C)C)c1ccc2c(c1)OCO2 (stereo not drawn) | -72
COC(=O)c1ccc(C2/C(=C(/O)c3ccc(OC)cc3)C(=O)C(=O)N2c2cc(C)on2)cc1 (stereo not drawn) | 9.91
CC(=O)Nc1ccc(NS(=O)(=O)c2ccc(C)cc2)c([N+](=O)[O-])c1 | -24.9
Cc1ccc(CNC(=O)C2CCN(S(=O)(=O)c3cnc[nH]3)CC2)cc1 | 6.12
Cc1ccc(Nc2ccc(N)cc2S(=O)(=O)O)cc1 | 14.8
COc1ccc(N(C(=O)Cn2nnc(-c3ccc(F)cc3)n2)C(C)C(=O)NC2CCCC2)cc1 (stereo not drawn) | -22
Cc1ccc(S(=O)(=O)N(C)c2ccc(OCc3cccc(C)c3)cc2)cc1 | 22.5
C#CCn1c(=NC(=O)c2cc(Cl)sc2Cl)sc2cc(S(N)(=O)=O)ccc21 | 4.89
O=S(=O)(Nc1nc2ccccc2nc1N1CCc2ccccc2C1)c1ccc(Br)cc1 | 5.81
Nc1c(NCc2ccccc2)c(=O)c1=O | -6.37
CC(C)OC(=O)CSc1nnc(CNc2ccc(Cl)cc2)n1C | -20.2
CCCn1c2c(c(O)c(C(=O)Nc3ccc(OC)cc3)c1=O)CCCC2 | 6.58
CCOC(=O)c1c(C)[nH]c(C(=O)CN2C(=O)NC(CC)(c3ccccc3)C2=O)c1C (stereo not drawn) | 10.5
O=C(CSc1nncs1)Nc1nnc(-c2ccccc2)o1 | 19.3
CCOc1ccc(N/C=C\C(=O)c2ccc3c(c2)OCO3)cc1 | 16.7
Cc1ccc(CN(C)C(=O)CSc2nnc3n2CCCCC3)c(C)c1 | -1.03
Cc1ccc(-c2ccc(C(=O)NCCCNC(=O)c3cnccn3)o2)cc1Cl | 25.5
CCCSc1nc2c(cnn2-c2ccc(C)c(C)c2)c(=O)[nH]1 | 7.52

Compound | hERG current change (%, negative = inhibition) at 10uM [%]
O=C(COC(=O)Cc1ccc(Cl)cc1)Nc1ccc2[nH]c(=O)[nH]c2c1 | 2.65
COc1cc(CN2CCN(C(=O)CC(C)C)CC2)cc(OC)c1O.O=C(O)C(=O)O | -0.00662
Cc1ccc(C)c2[nH]c(=O)c(CN(Cc3nnnn3C3CCCCC3)CC3CCCO3)cc12 (stereo not drawn) | -7.62
COc1ccc(/C=C/C(=O)NC(=S)N2C[C@H]3C[C@H](C2)c2cccc(=O)n2C3)cc1OC | 6.67
O=C(Cc1c[nH]c2ccccc12)Nc1nnc(C2CC2)s1 | -4.79
Nc1c(N(CCC2=CCCCC2)C(=O)Cc2ccc(F)cc2)c(=O)[nH]c(=O)n1Cc1ccccc1 | -26.6
CCCN(CCC)CCCNC(=O)C1c2cc(OC)c(OC)cc2C(=O)N(C)C1c1cccs1 (stereo not drawn) | 9.81
O=C(NC(NNc1ccc([N+](=O)[O-])cc1)(C(F)(F)F)C(F)(F)F)c1ccc(Cl)cc1 | -8.5
O=C(COC(=O)c1ccc(O)cc1)c1ccc(S(=O)(=O)N2CCCCC2)cc1 | 5.37
CC(C)CNC(=O)CN1C(=O)NC2(CCc3ccccc32)C1=O (stereo not drawn) | 22
CCOC(=O)C(NC(=O)C1C(C)N1S(=O)(=O)c1ccc(C)cc1)C(=O)OCC (stereo not drawn) | 5.38
O=C(O)c1ccc(N=NN2CCCCCC2)cc1 | 22.6
COc1ccc(CNS(=O)(=O)CCNC(=O)c2cccc(OC)c2)cc1 | -78.1
CC(=O)NC(Cc1ccc(F)cc1)C(=O)O (stereo not drawn) | -24.1
Cc1cc2[nH]cnc2c([N+](=O)[O-])c1C | -24.5
CCC(=O)N1c2ccc(S(=O)(=O)N3CCOCC3)cc2CC1C (stereo not drawn) | 18.1
CN(Cc1ccccc1)C(=O)COC(=O)C1CCN(S(=O)(=O)c2ccc3c(c2)OCCO3)CC1 | -8.41
CCOC(=O)c1c(C)[nH]c(C(=O)NCc2ccccn2)c1C | -6.54
C=CCNC(=O)C1CCN(c2ccc(S(=O)(=O)N3CCOCC3)cc2Cl)CC1 | -21.1
CCOC(=O)C1=C(COC(=O)CSc2ccc(C)cc2)NC(=O)NC1C (stereo not drawn) | -18.9
O=C(CNC(=O)c1ccncc1)Nc1ccc(F)c(F)c1 | -29.9

Source: publication PMC4336329 (PLoS ONE, 2015)
